Data: patent US20220047729A1 (ALBERT EINSTEIN COLLEGE OF MEDICINE, published 2022)

What was measured:
[1] = molecular target: T1, recombinant hPD-L2 hIgG1 Fc-fusion protein (R&D Systems) (human, UniProt Q9BQ51 20-219); assay: flow cytometry, HEK 293 cells displaying the PD-1 construct, one dose of hPD-L2 Fc fusion; the reference itself
T1 construct: Bought from R&D Systems; also called hPD-L2 Fc-fusion protein; not shown: human IgG1 Fc
T1 sequence (looked up): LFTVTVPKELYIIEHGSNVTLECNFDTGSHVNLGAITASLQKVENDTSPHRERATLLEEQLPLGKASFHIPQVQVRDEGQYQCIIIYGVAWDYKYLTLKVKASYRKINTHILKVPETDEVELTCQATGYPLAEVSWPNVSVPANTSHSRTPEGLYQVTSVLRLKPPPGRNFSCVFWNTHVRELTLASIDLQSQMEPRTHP

[2] = molecular target: T2, recombinant hPD-L1 hIgG1 Fc-fusion protein (R&D Systems) (human, UniProt Q9NZQ7 fragment); assay: flow cytometry, HEK 293 cells displaying the PD-1 construct, one dose of hPD-L1 Fc fusion; the reference itself
T2 construct: Bought from R&D Systems; also called hPD-L1 Fc-fusion protein; not shown: human IgG1 Fc
T2 sequence (Q9NZQ7 19-239 limits assumed): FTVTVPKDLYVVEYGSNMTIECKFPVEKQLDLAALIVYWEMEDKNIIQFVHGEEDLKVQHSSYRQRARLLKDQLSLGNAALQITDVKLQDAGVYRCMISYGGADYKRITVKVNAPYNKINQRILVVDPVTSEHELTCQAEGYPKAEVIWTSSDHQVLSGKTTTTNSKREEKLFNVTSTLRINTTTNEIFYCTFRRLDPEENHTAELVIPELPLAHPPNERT

B1: wild-type human PD-1 ectodomain (Leu 25-Thr 168) displayed on HEK 293 cells (hPD-1 Type I mCherry) (receptor)
chain: not shown
notes: also called WT; wild type PD-1; not shown: mCherry fluorescent protein at the C-terminus
average binding normalized to wild type (AVE-hPD-L2) [1]: 1 relative to wild type
average binding normalized to wild type (AVE-hPD-L1) [2]: 1 relative to wild type
